The list shows a part of the results.
The sequences below were run on PfSIP2 AP2 domain 1 (GST-tagged) (assay: gcPBM binding intensity (ln(normalized median fluorescence intensity)); higher = stronger DNA binding).
Summary of the method: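 Alexa488 anti-GST antibody, scanned at 488 nm, detected GST-tagged P. falciparum DNA-binding domains that had been expressed in E. coli and incubated for 1 h on an Agilent 4 × 180k array. The array carried primer-extended double-stranded 36-bp intergenic genomic probes and negative controls. Binding intensity is the highest Masliner-normalised natural-log median intensity across replicate spots of either orientation of each probe.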
With “GTAATCCACAAACACACACACATACACATATATATA [CACACA_site2728]” the “gcPBM binding intensity (ln)” value was 7.49.
With “ATCATTTTTAATAAATGTACAAGTTTTAAAAAAAAA [XGTACX_site7340]” the “gcPBM binding intensity (ln)” value was 6.82.
In the case of “AAAAAAACAACATGCACACGCACACCCAAAAAAAGC [CACACA_site72]”, the “gcPBM binding intensity (ln)” value was 7.96.
For “GTGTATTTTGTGCGCACACACATGCAAAAAGAAATA [CACACA_site6660]”, the “gcPBM binding intensity (ln)” value was 9.54.
In the case of “TACACATGTTTAAAATGTACGTTTTATAACACACAC [XGTACX_site8229]”, the “gcPBM binding intensity (ln)” value was 7.6.
For “GGTAGGTGAATATATACACACATATATTATATATAT [CACACA_site1984]”, the “gcPBM binding intensity (ln)” value was 7.74.
With “TTTTACAAGTATTGATAAATAAGAAATATATAAAAT [CACACA_negctrl_site529]” the “gcPBM binding intensity (ln)” value was 6.82.
“AAAAAAAATTAAGCATGTATAAATATATATATATAT [CACACA_negctrl_site1540]” was tested, and the “gcPBM binding intensity (ln)” value was 9.53.
In the case of “ATTATATTAATTTATAGTACAATATTTATATATATG [XGTACX_site4668]”, the “gcPBM binding intensity (ln)” value was 6.98.
In the case of “TATATATTACTTTTTTGTACGAATTTTACAACTACG [XGTACX_site3473]”, the “gcPBM binding intensity (ln)” value was 7.04.
In the case of “TATTAAAATATTCTCACACACCAAAATATGTATGTA [CACACA_site6565]”, the “gcPBM binding intensity (ln)” value was 6.71.
For “AAAAAAAAAAAAAAAAAAAGAAAAGAAAATAGGGTT [GTGCAC_negctrl_site421]”, the “gcPBM binding intensity (ln)” value was 7.97.
For “AGGAGGAACAAACAAAACAATAAAAATTATAATAAA [GTGCAC_negctrl_site206]”, the “gcPBM binding intensity (ln)” value was 6.93.
For “AAAAGACATTTTTTTTTATAAATACACACGTACGTG [TGCATGCA_negctrl_site281]”, the “gcPBM binding intensity (ln)” value was 6.95.
In the case of “TTCAAAGACACAATCACACACATACATAAATATACA [CACACA_site687]”, the “gcPBM binding intensity (ln)” value was 7.01.
For TTCCAAGAAATAATAGTGCATTATTCATTTTAATAA, the “gcPBM binding intensity (ln)” value was 10.1.
With “AATATACATAACAAGGTGCAAAAAATATTGTTCATA [GTGCAC_site9499]” the “gcPBM binding intensity (ln)” value was 10.9.
For “TTATTATTATGATTATTATGATGATTATACAACTGT [TGCATGCA_negctrl_site241]”, the “gcPBM binding intensity (ln)” value was 7.
For “TATTAATTATAAGATGCATGTGCAAAAATATGTTCC [TGCATGCA_site51]”, the “gcPBM binding intensity (ln)” value was 7.6.
With “TTTCTTTGTATTTATAGTACATATTTTAATAACTGC [XGTACX_site6673]” the “gcPBM binding intensity (ln)” value was 7.08.
For “ATAATATTTTATTATACATGCAAATTATTATATATA [TGCATGCA_site40]”, the “gcPBM binding intensity (ln)” value was 6.79.
“TTTCCGGTAATATGGAGATATATGTGGGTTTTTTTT [GTGCAC_negctrl_site374]” was tested, and the “gcPBM binding intensity (ln)” value was 6.65.
“ACAAAATTTACAAAATGTACAAAGTATGTGTTTTAT [XGTACX_site6462]” was tested, and the “gcPBM binding intensity (ln)” value was 6.85.
With “ATATTTTTTTTTTTCACACACATTTATATTGTATTA [CACACA_site5695]” the “gcPBM binding intensity (ln)” value was 7.24.
For “AGAAAAAAGAGGGATACACACAAACATATATTTATA [CACACA_site7122]”, the “gcPBM binding intensity (ln)” value was 6.93.
For “GATTAAAATCAAAGGTGTACGCACAAATAAGTCCCA [XGTACX_site4360]”, the “gcPBM binding intensity (ln)” value was 6.89.
For “CACCCTTTGTTTTAGAGTACATATGTATATACGTAA [XGTACX_site7964]”, the “gcPBM binding intensity (ln)” value was 7.53.
With “TATATATATTTATGTACACACATATATACCTTTCAT [CACACA_site5479]” the “gcPBM binding intensity (ln)” value was 7.58.
With “AACTTGTATTTATACACACACACACTAGCTTTTTTT [CACACA_site5132]” the “gcPBM binding intensity (ln)” value was 6.94.
For “AGAATTAAAAACAGTTGTACAAAAAGTTGTATAAAT [XGTACX_site411]”, the “gcPBM binding intensity (ln)” value was 6.95.
With “TATAGCTTTCATTATACACACATCAAAAATTTAAAT [CACACA_site227]” the “gcPBM binding intensity (ln)” value was 7.29.
In the case of “AGTAATAAATTTTATACATGCATAAAAAAAAAAAAA [TGCATGCA_site661]”, the “gcPBM binding intensity (ln)” value was 7.03.
With “TTAAAAATCATTTAAGAACACACAAATATTTCCATT [CACACA_site8418]” the “gcPBM binding intensity (ln)” value was 6.79.
“TATATTTATTTTTAATGTACATATTTAAGAAAACTA [XGTACX_site4920]” was tested, and the “gcPBM binding intensity (ln)” value was 7.36.
In the case of “GACTCATTAAGGATTATTCCTAATGATCAAAAGAAC [CACACA_negctrl_site515]”, the “gcPBM binding intensity (ln)” value was 7.12.
For “TGATTCTTTTCAAAGTGTACAGTAATTTTTATGTAA [XGTACX_site8452]”, the “gcPBM binding intensity (ln)” value was 7.05.
With “TATATAATTCAAAAATGTACATGAAATATAAATATT [XGTACX_site7984]” the “gcPBM binding intensity (ln)” value was 6.78.
For “ATATTATAAATTATAGGTACACACAAAAAAAAAAAG [XGTACX_site2637]”, the “gcPBM binding intensity (ln)” value was 7.3.
For “AAGTTTTCTTAAAGATGTACTTTTTAAAAATAAAAT [XGTACX_site3063]”, the “gcPBM binding intensity (ln)” value was 7.02.
In the case of “AAATATATTGCATATATACACACGTATATATATTAA [CACACA_site2759]”, the “gcPBM binding intensity (ln)” value was 6.97.
With “ATATCAAGCTATGAGAAAAAAAAAAAGAAAAAAAAA [CACACA_negctrl_site1370]” the “gcPBM binding intensity (ln)” value was 6.89.
“TTAAATAAAAAAATAACACACATATAAATCTATATG [CACACA_site7482]” was tested, and the “gcPBM binding intensity (ln)” value was 6.72.
In the case of “GCCATTAATTTATACACACACATTATAACTTTTTAT [CACACA_site6492]”, the “gcPBM binding intensity (ln)” value was 7.44.
With “TATCAGCAATGGAAAACATGCAAAAAATTAATATAT [TGCATGCA_site623]” the “gcPBM binding intensity (ln)” value was 6.97.
